Experimental data reported in PubChem BioAssay AID504832 (National Center for Advancing Translational Sciences (NCATS), 2011).
About 18,000 (5.8%) of roughly 310,000 compounds were called active. This list was built around the results that the source calls inconclusive (neither active nor inactive); the mix of calls is not that of the screen. Calls come from the whole dose curve; as a rule, active = well fitted inhibition curve with a large enough effect; inconclusive = small, poorly fitted or top-dose-only effect, or another doubt; inactive = no such curve, though single readings can be large or run the other way. Potencies of inconclusive entries are left out as doubtful fits.

Assay: Primary qHTS for delayed death inhibitors of the malarial parasite plastid, 48 hour incubation
Settings: P. falciparum luciferase growth in erythrocytes; series mostly up to 28.7 µM; activity change, negative = inhibition: at the top concentration
In short: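 First compound was added to culture medium, then infected red cells at 0.1% parasitemia and 2% hematocrit (final). After incubation at 37 C under 5% CO2, luciferase detection reagent was dispensed and light output recorded.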
% is set by controls: 0 for no effect and ±100 for the full control effect; potency is the fitted concentration of half-maximal effect; tags give direction and shape of the fitted curve.

| Structure (SMILES) | Potency | activity change, negative = inhibition |
| --- | --- | --- |
| CCn1cc(C(=O)NN)c(=O)c2cc(F)c(N3CCN(C)CC3)cc21 | inconclusive [inhibitor, partial curve] | – |
| COc1ccc(-c2nc(S(=O)(=O)c3ccc(C)cc3)c(N3CCCC3)o2)cc1 | – | inactive: 20.6% |
| CCOC(=O)N1CCN(c2ccc(S(=O)(=O)N3CCC(C)CC3)cc2[N+](=O)[O-])CC1 | active: 10.4 µM | – |
| Cc1nc(N2CCN(c3ccccc3)CC2)[nH]c(=O)c1Cc1cccc2ccccc12 | inconclusive [inhibitor, single point] | – |
| O=C(O)c1ccccc1SCc1cn2ccccc2n1 | – | inactive: 3.15% |
| CCC(CC)N1CCN(C(=O)c2cccc(Cl)c2)CC1 | – | inactive: 16% |
| CCOC(=O)c1ccc(Oc2nc(NC)nc(OC)n2)cc1 | active: 13.1 µM | – |
| COc1ccc(-c2nnc3c4ccccc4c(C)nn23)cc1 | inconclusive [inhibitor, single point] | – |
| CC(=O)Nc1ccc(S(=O)(=O)N2CCCN(c3nc(C)cc(C)c3C#N)CC2)cc1 | – | inactive: 1.68% |
| Cc1cc(-c2ccc(C(C)C)c(S(=O)(=O)NCCN3CCC(C)CC3)c2)on1 | inconclusive [inhibitor, partial curve, poor fit] | – |
| N#CC1=C(N)C(C#N)(C#N)[C@H](c2cccnc2)[C@H]2CN(C(=O)OCc3ccccc3)CC=C12 | inconclusive [inhibitor, partial curve, poor fit] | – |
| CCOC(=O)C1C(=O)C=C(c2ccc([N+](=O)[O-])cc2)CC1c1ccccc1 (configuration not stated) | inconclusive [inhibitor, partial curve, poor fit] | – |
| O=C(Cc1noc2ccccc12)NNC(=S)Nc1ccc(Cl)cc1 | – | inactive: 3.92% |
| Cc1cc(C)cc(-n2ncc3c2CCCC3NC(=O)c2csnn2)c1 (configuration not stated) | inconclusive [inhibitor, partial curve] | – |
| CN(Cc1ccccc1)S(=O)(=O)c1ccc(NC(=S)NC(=O)C(C)(C)C)cc1 | inconclusive [inhibitor, single point] | – |
| COCCNc1nc(-n2nc(C)cc2C)nc2sc3c(c12)CCCC3 | inconclusive [inhibitor, single point] | – |
| COc1cc(NC(=S)Nc2cccnc2)cc(OC)c1 | inconclusive [inhibitor, single point] | – |
| COC(=O)N1C/C=C\C(c2ccc(OC)cc2)N(Cc2ccc(F)cc2)C(=O)C1 (configuration not stated) | inconclusive [inhibitor, partial curve, poor fit] | – |
| Cc1ccc(S(=O)(=O)NCCC(=O)NCC(c2ccc(F)cc2)N2CCOCC2)cc1 (configuration not stated) | inconclusive [inhibitor, single point] | – |
| CCOC(=O)c1c(NC(=O)C2COc3ccccc3O2)sc2c1CCN(Cc1ccccc1)C2 (configuration not stated) | active: 4.65 µM | – |
| COc1ccc(NC(=O)CN(C)C(=O)Cc2ccc(-c3ccccc3)cc2)cc1 | inconclusive [inhibitor, single point] | – |

| Structure (SMILES) | Potency | activity change, negative = inhibition |
| --- | --- | --- |
| Cc1nn(C)c(C)c1/C=C(/C(=O)C(C)C)n1cncn1 | inconclusive [inhibitor, full curve] | – |
| Cc1ccc(CN2CCN(Cc3ccco3)CC2)cc1 | – | inactive: 5.25% |
| Cc1ccc(C2(c3noc(CN(C)CC4CCCCO4)n3)CCCC2)cc1 (configuration not stated) | inconclusive [inhibitor, single point] | – |
| O=C(NCC1CC1)c1onc(CSc2nc3ccccc3[nH]2)c1C(=O)NCC1CC1 | inconclusive [inhibitor, partial curve, poor fit] | – |
| CCCCC(=O)NC(=S)NNC(=O)c1ccc(OC)cc1 | inconclusive [inhibitor, single point] | – |
| CCC1(c2ccccc2)NC(=O)N(CC(=O)NCC2COc3ccccc3O2)C1=O (configuration not stated) | inconclusive [inhibitor, partial curve, poor fit] | – |
| CCCNC(=O)CSc1nc2[nH]ncc2c(=O)[nH]1 | – | inactive: 5.3% |
| CS/C(N)=N/N=C/c1cc(Br)cc(Br)c1O | inconclusive [inhibitor, full curve] | – |
| CCCn1c(=NC(=O)CS(=O)(=O)c2ccccc2)sc2cc(S(C)(=O)=O)ccc21 | inconclusive [inhibitor, single point] | – |
| CCN(CC)C(=O)c1c(-c2ccccc2)oc2ccc(O)cc12 | inconclusive [inhibitor, partial curve, poor fit] | – |
| CCN1CCN(c2ccc(NC(=O)c3ccc(C#N)cc3F)cc2Cl)CC1 | inconclusive [inhibitor, partial curve] | – |
| CCOC(=O)c1ccc(NC(=O)CSc2nc(=O)n3cccc(C)c3n2)cc1 | inconclusive [inhibitor, single point] | – |
| CCOc1ccc2nc(C)cc(Nc3ccc(N4CCOCC4)cc3)c2c1 | active: 2.08 µM | – |
| COc1ccc(CCn2c(=N)c(S(=O)(=O)c3ccccc3)cc3c(=O)n4ccccc4nc32)cc1 | inconclusive [inhibitor, partial curve] | – |
| CCCCc1cc(=O)oc2cc(OCC(=O)N3CCC(C(N)=O)CC3)ccc12 | inconclusive [inhibitor, single point] | – |
| COc1cccc(OC)c1C(=O)OCC(=O)Nc1cccnc1Cl | inconclusive [inhibitor, single point] | – |
| CC1CCc2ccccc2N1C(N)=Nc1ccccc1 (configuration not stated) | inconclusive [inhibitor, single point] | – |
| NC(=O)CC[C@@H]1NC(=O)[C@@H]2CCCN2C(=O)c2cc([N+](=O)[O-])cc(I)c2NCCC[C@@H](C(N)=O)NC1=O | – | inactive: 12.6% |
| Cc1onc(C(=O)N2CCN(C(c3ccccc3)c3ccccc3)CC2)c1[N+](=O)[O-] | inconclusive [inhibitor, partial curve] | – |
| NC(=O)C1(N2CCCCC2)CCN(Cc2nc3ccccc3c(=O)[nH]2)CC1 | inconclusive [inhibitor, full curve, poor fit] | – |
| Cc1ccccc1C(=O)NNc1ccc([N+](=O)[O-])cc1 | – | inactive: 30.8% |
